Values joined by “and” are separate entries in the source; they are usually repeats but may differ in a detail not shown here. Identical values can stand only once. About 40 (0.2%) of roughly 16,000 compounds were called active. Inconclusive results (about 1%) are left out. Calls come from the whole dose curve; as a rule, active = well fitted activation curve with a large enough effect; inconclusive = small, poorly fitted or top-dose-only effect, or another doubt; inactive = no such curve, though single readings can be large or run the other way. The list shows a part of the results.
% is set by controls: 0 for no effect and ±100 for the full control effect.

The assay addresses Rap guanine nucleotide exchange factor 4 (Homo sapiens) (UniProt Q8WZA2). The assay can be described thus: Validation qHTS for agonist of cAMP-regulated guanine nucleotide exchange factor 4 (EPAC2).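 Note: exchange makes BODIPY-GDP fluorescence drop when released from Rap1B; series mostly up to about 150 µM.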 The note with it: EPAC2 Rap1B BODIPY-GDP exchange, fluorescence; activation: hits give high values. In outline: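 Fluorescent exchange assay: 100 nM EPAC2 with 250 nM RAP1B-BODIPY-GDP and 50 uM GDP; compound added, 5 min at room temperature, then read (ex 480/em 540 nm) every 5 min for 30 min. Normalized to 6.5 mM cAMP agonist control.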
Chain of UniProt Q8WZA2 (Q8WZA2 whole entry, looked up): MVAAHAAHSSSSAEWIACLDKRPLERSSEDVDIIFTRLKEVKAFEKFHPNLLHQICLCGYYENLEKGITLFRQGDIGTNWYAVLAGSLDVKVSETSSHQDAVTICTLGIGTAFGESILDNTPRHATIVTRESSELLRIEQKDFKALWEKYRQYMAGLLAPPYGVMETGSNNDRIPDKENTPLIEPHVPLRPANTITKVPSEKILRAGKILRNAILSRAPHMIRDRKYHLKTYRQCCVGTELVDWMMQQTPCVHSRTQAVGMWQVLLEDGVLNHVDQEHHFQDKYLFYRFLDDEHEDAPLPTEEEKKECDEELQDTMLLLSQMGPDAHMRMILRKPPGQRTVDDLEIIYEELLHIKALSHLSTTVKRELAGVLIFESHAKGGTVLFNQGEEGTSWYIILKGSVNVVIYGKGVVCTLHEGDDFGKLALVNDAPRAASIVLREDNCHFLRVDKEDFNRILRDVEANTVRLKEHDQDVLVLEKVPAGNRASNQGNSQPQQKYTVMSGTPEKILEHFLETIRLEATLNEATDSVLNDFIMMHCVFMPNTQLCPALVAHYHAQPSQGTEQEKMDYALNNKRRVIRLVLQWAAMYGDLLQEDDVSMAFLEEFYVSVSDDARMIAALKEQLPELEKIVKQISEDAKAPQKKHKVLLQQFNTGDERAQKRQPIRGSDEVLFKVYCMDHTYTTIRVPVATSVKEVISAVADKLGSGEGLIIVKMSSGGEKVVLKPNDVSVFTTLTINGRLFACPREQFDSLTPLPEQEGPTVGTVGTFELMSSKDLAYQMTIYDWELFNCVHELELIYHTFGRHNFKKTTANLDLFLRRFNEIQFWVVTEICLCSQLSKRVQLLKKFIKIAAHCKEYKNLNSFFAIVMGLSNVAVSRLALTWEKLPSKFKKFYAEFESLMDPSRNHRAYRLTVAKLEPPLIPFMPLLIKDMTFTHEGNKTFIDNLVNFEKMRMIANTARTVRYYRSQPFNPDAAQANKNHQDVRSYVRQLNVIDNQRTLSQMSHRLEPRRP
Regarding `CCNc1ncc2nc(-c3ccccc3)c(=O)n(Cc3cccc(OC)c3)c2n1`, the activation was inactive: -9.22%.
The figure for `COC(=O)c1cc(CNC(=O)c2ccc3ncccc3c2)cc(NC(=O)c2ccccc2Cl)c1` is inactive: -17.5%; for `COc1ccc(CNc2nc(-c3ccc4c(c3)OCO4)nc3ccccc23)c(OC)c1` it is inactive: 18.5%; for `COCCNc1nc(-c2ccccc2C(F)(F)F)nc2ccccc12` it is inactive: -4.15%.
The figure for `N#CCCn1c(=O)c(CCc2ccccc2)nc2cnc(Oc3cccc(Cl)c3)nc21` is inactive: -3.83%.
`COc1cccc(-c2ccc3ncnc(N(C)Cc4ccco4)c3c2)c1`: the activation was inactive: -7.2%.
Take `CS(=O)(=O)c1ccc(-c2cccc3c2OC(CNC(=O)c2ccnc(Cl)c2)C3)cc1` (stereo unspecified): the activation was inactive: -3.8%.
Consider `CCCCCCCCCCCC[N+](C)(C)Cc1ccccc1`, for which the activation was inactive: -9.9%.
Next, `O=C1CC(c2ccc(O)c(O)c2)Oc2cc(O)cc(O)c21` (stereo unspecified): inactive: -4.54%; `COc1cccc(Cn2c(=O)cnc3cnc(Nc4ccccc4)nc32)c1`: inactive: -56.7%; `Cc1cccnc1-c1cccc2c1OC(CNC(=O)Cc1c(C)noc1C)C2` (stereo unspecified): inactive: -18.6%.
Next, `CCOC(=O)[C@H](CCc1ccccc1)N[C@H]1CS[C@H](c2cccs2)CN(CC(=O)O)C1=O`: inactive: 7.82%; `CCCCC[C@H]1CN(Cc2ccccc2)C(=O)[C@@H]1CC(=O)NCc1ccc(OC)cc1`: inactive: -33.7%.
Consider `O=C1NC(=O)/C(=C/c2ccc3nccnc3c2)S1`, for which the activation was inactive: -19.3%.
The figure for `Oc1ccc2c(c1)OC(c1ccc(O)c(O)c1)C(O)C2` (stereo unspecified) is inactive: -37%.
For `NC(N)=NN=C(/C=C/c1ccc([N+](=O)[O-])o1)/C=C/c1ccc([N+](=O)[O-])o1`, the activation was inactive: 27%.
Next, `CN1CCCN(C(=O)[C@@H]2C[C@@H](Sc3nc4ccccc4[nH]3)CN2Cc2ccc(-c3ccccc3)cc2)CC1`: inactive: -0.104%; `c1ccc(-c2cccc(N3CCC4(CCNCC4)CC3)c2)cc1`: inactive: -12.5%.
`CCc1cccc2c(C(O)(c3c[nH]c4c(CC)cccc34)c3c[nH]c4c(CC)cccc34)c[nH]c12`: the activation is inactive: -26.7%.
The figure for `CCC1CN(Cc2cn[nH]c2-c2ccc(OC)cc2)Cc2cc(OC)ccc2O1` (stereo unspecified) is inactive: -1.83%.
Next, `CO/N=C(\C(=O)N[C@@H]1C(=O)N2C(C(=O)[O-])=C(C[n+]3ccc(N)n3CCO)CS[C@H]12)c1csc(N)n1`: inactive: -0.99%; `CN(C)c1ncc2nc(-c3ccc(F)cc3)c(=O)n(-c3ccccc3)c2n1`: inactive: -9.61%.
The figure for `c1ccc(CNc2ncnc3ccc(-c4ccoc4)cc23)cc1` is inactive: -26.4%; for `COc1ccc(-c2cc3ncc(C)n3c(Nc3ncccc3C(N)=O)n2)cc1OC` it is inactive: -29.9%.
As for `O=C1OCCN1/N=C/c1ccc([N+](=O)[O-])o1`, the activation is inactive: 23.5% and inactive: -4.66%.
Next, `NC(=O)c1ccc([N+](=O)[O-])cc1Cl`: inactive: -15.8%.
The figure for `COCc1c(C(=O)N2CCN(c3ccccc3)CC2)cnn1-c1nccc(-c2ccco2)n1` is inactive: 1.98%; for `CC1=CC(=O)C2=C(C)CCC3C(C)C(=O)OC3C12` (stereo unspecified) it is inactive: -3.54%; for `O=C(c1csnn1)N1CCC2(CCCN(c3ccncc3)C2)CC1` it is inactive: 6.72%.
For the compound `CC(C)(C)[C@@H]1CCC(=O)N(CC[C@H](N=[N+]=[N-])c2ccccc2)CC1`, the activation was inactive: -16.6%.
The figure for `COc1ccc(-c2nc3cc(C)ccc3cc2CN(C(=O)c2ccc(C)s2)C2CC2)cc1OC` is inactive: -19.5%; for `O=C(/C=C/C(=O)Oc1ccccc1C(=O)O)Oc1ccccc1C(=O)O` it is inactive: -0.456%; for `O=S1(=O)CCOC[C@H](c2ccccc2)N1Cc1cccc(F)c1` it is inactive: -22.1%.
As for `CCOC(=O)N1CCN(Cc2ccc3c(c2)CN(C(=O)c2noc4c2CCCC4)CCO3)CC1`, the activation was inactive: -10.3%.
Next, `O=C(Nc1ccc(Oc2ccc(Cl)cc2)c(Cl)c1)c1cc(I)cc(I)c1O`: inactive: -1.43%; `c1ccc2c(c1)Sc1ccccc1N2CCN1CCCC1`: inactive: -7.08%.
Next, `Fc1cccc(/C=N\N=C/c2cccc(F)c2)c1`: inactive: -7.59%.
The figure for `Cc1ccc(CNc2nc(CN3CCNC(=O)C3)nc3ccccc23)o1` is inactive: 7.11%.
With `CCOC(=O)Oc1c(OC)cc(C(=O)O[C@@H]2C[C@@H]3CN4CCc5c([nH]c6cc(OC)ccc56)[C@H]4C[C@@H]3[C@H](C(=O)OC)[C@H]2OC)cc1OC`, the activation was inactive: -0.25%.
The figure for `Cc1noc(C)c1-c1cc(NCc2ccccc2)ncn1` is inactive: -7.49%; for `CN(C)c1nc2cc3c(cc2cc1CN(CC1CCCO1)C(=O)c1cccc(F)c1)OCO3` (stereo unspecified) it is inactive: -0.994%.
With `O=C(c1ccncc1)N1CCC2(CCC(CNC(=O)C3(N4CCOCC4)CCCCC3)O2)CC1` (stereo unspecified), the activation is inactive: -2.74%.
Next, `Cc1c(O)c(=O)ccn1C`: inactive: -2.65%; `COc1cc(=O)n2c(c1C(=O)NC(C)c1ccco1)CCN(C(=O)c1[nH]c(C)cc1C)CC2` (stereo unspecified): inactive: -1.19%.
Next, `Cc1c(C(=O)NCC2(N3CCOCC3)CCCC2)cnn1-c1nccc(-c2ccccc2F)n1`: inactive: -0.878%; `CC(=O)OC1CC(OC(C)=O)[C@]2(C)C(CC(=O)[C@]3(C)C2CC[C@@]2(C)C(c4ccoc4)OC(=O)C4O[C@@]423)C1(C)C` (stereo partly specified): inactive: -7.29%.
Regarding `Cc1ccc([N+](=O)[O-])cc1S(=O)(=O)N(C)C`, the activation was inactive: -86.1%.
The figure for `CC#C[C@]1(O)CC[C@H]2[C@@H]3CCC4=CC(=O)CCC4=C3[C@H](c3ccc(N(C)C)cc3)C[C@@]21C` is inactive: -30.1%; for `Cc1oc(-c2ccccc2NC(=O)c2ccccn2)nc1CNC(=O)c1cccc(C#CC(C)(C)O)c1` it is inactive: 12.3%.
Next, `CC[C@]1(O)C[C@@H]2CN(CCc3c([nH]c4ccccc34)[C@](C(=O)OC)(c3cc4c(cc3OC)N(C=O)[C@H]3[C@@](O)(C(=O)OC)[C@H](C(=O)OC)[C@@]5(CC)C=CCN6CC[C@]43[C@H]65)C2)C1`: inactive: -11.8%.
Regarding `O=S1(=O)CCO[C@H]2Cc3ccccc3[C@H]2N1Cc1ccccc1Br`, the activation is inactive: -25.9%.
`CCC(=O)O[C@]1(C(=O)CCl)[C@@H](C)C[C@H]2[C@@H]3CCC4=CC(=O)C=C[C@]4(C)[C@@]3(F)[C@@H](O)C[C@@]21C`: the activation is inactive: -20.1%.
Consider `O=C1CCNCCN1[C@H](CO)Cc1ccccc1`, for which the activation is inactive: -14.8%.
For `CCc1cc(C(=O)N2CCOc3ccc(CN4CCN(Cc5ccccn5)CC4)cc3C2)no1`, the activation is inactive: -17.7%.
The figure for `O=C(NCc1nnc2n1CCN(C(=O)c1cccc(Cl)c1)CC2)C1CC1` is inactive: -2.97%; for `CN(C)CC/C=C1\c2ccccc2Sc2ccc(Cl)cc21` it is inactive: -6.69% and inactive: -7.82%; for `c1ccc([C@H]2CN3CCSC3=N2)cc1` it is inactive: -22.8% and inactive: -64.1%.
The figure for `CN1C[C@H]2c3ccccc3Oc3ccc(Cl)cc3[C@@H]2C1` is inactive: -5.32%; for `COc1ccc(-n2c(=O)c(-c3cccs3)nc3cnc(Oc4ccccc4)nc32)cc1` it is inactive: -2.82%; for `N[C@@H](CCCP(=O)(O)O)C(=O)O` it is inactive: -1.88%.
Next, `C=Cc1ccccc1`: inactive: -2.95%.
Turning to `CC(C)(CNC(=O)c1cnn(-c2nccc(-c3cc4ccccc4o3)n2)c1C1CC1)N1CCOCC1`, the activation is inactive: -8.26%.
The figure for `O=C(Cc1ccc[nH]c1=O)c1ccc(F)cc1` is inactive: -10.9%.
The figure for `CCCCNC(=O)[C@@H]1Cc2ccccc2N1C(=O)[C@H](N)CC` is inactive: -9.91%; for `COCCn1c(=O)c(-c2cc(F)cc(F)c2)nc2cnc(N3CCN(C)CC3)nc21` it is inactive: -16.5%; for `C[C@]12CCC(=O)C=C1CC[C@@H]1C2[C@@H](O)C[C@@]2(C)[C@H]1CC[C@]2(O)C(=O)CO` (stereo partly specified) it is inactive: 3.87%.
The figure for `COc1cccc(Cn2c(=O)c(-c3cc(F)cc(F)c3)nc3cnc(N(C)C)nc32)c1` is inactive: -5.15%.
As for `CC(=O)Nc1ccccc1-c1nc(CNC(=O)c2cccc(-n3cccn3)c2)c(C)o1`, the activation is inactive: 0.628%.
Next, `CC(C)NCC(O)c1ccc2ccccc2c1` (stereo unspecified): inactive: -7.88% and inactive: 2.44%.
The figure for `Clc1cccc(C(c2ccc3nc[nH]c3c2)n2ccnc2)c1` (stereo unspecified) is inactive: -3.04%.
`COC(=O)c1c(OCc2ccccn2)cc(=O)n2c1CCN(Cc1cccc(C(F)(F)F)c1)CC2`: the activation is inactive: -12.3%.
The figure for `Cc1nc2[nH]c(=O)[nH]c(=O)c2[nH]1` is inactive: -3.92%; for `CC1=C[C@H](O)CC(C)(C)[C@H]1/C=C/C(C)=C/C=C/C(C)=C/C=C/C=C(C)/C=C/C=C(C)/C=C/C1=C(C)C[C@@H](O)CC1(C)C` it is inactive: -26.6%; for `CC(=O)O[C@]1(C(C)=O)CC[C@H]2[C@@H]3C[C@H](C)C4=CC(=O)CC[C@]4(C)[C@H]3CC[C@@]21C` it is inactive: -2.94%.
With `O=C(O)c1cc(-c2ccccc2)nc2ccccc12`, the activation is inactive: -17.4% and inactive: -9.23%.
On to `N[C@@H](Cc1ccccc1)C(=O)O`, for which the activation is inactive: -14.1%.
Next, `CC1CN(CC(=O)NCC2(N3CCOCC3)CCCC2)Cc2cc(Cl)ccc2O1` (stereo unspecified): inactive: -5.16%.
In the case of `CC(=O)OCC(=O)[C@]1(O)C(OC(C)=O)CC2C3CCC4=CC(=O)C=C[C@@]4(C)[C@]3(F)C(O)C[C@]21C` (stereo partly specified), the activation was inactive: 6.22%.
`O=C(NCC1(N2CCOCC2)CCCC1)c1cnn(-c2ncc3c(n2)-c2ccccc2CC3)c1C1CC1`: the activation was inactive: 6.05%.
The figure for `C[C@@H]1CN(Cc2ccc3c(c2)CN(Cc2cccc4c2OCO4)CCO3)C[C@H](C)O1` is inactive: -2.91%; for `c1ccc2cnccc2c1` it is inactive: -15.7%.
